Measurements reported in paper PMC4571948, “Identification of a Novel Sequence Motif Recognized by the Ankyrin Repeat Domain of zDHHC17/13 S-Acyltransferases*” (The Journal of Biological Chemistry, 2015).

Biological target: T1, GST-17NAnk (GST-tagged N-terminal (1–305) zDHHC17) (murine, UniProt Q80TN5 1-305)
T1 construct: zDHHC17, murine cDNA, N-terminal residues 1–305 with the AR domain; also called GST-17Ank; GST-tagged AR-containing cytosolic region of zDHHC17; source: E. coli BL21(DE3)pLysS, purified (glutathione resin)
T1 sequence (looked up): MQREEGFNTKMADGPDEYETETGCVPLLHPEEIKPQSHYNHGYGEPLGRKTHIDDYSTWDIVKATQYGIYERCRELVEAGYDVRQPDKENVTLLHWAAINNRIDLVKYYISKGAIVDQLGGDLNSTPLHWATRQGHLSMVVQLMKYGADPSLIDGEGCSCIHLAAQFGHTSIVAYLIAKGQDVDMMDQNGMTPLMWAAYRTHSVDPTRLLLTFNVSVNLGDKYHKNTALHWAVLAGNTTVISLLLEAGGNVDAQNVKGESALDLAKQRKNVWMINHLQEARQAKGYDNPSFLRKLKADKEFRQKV
Assay: pull-down; 20 μg GST-17NAnk (or GST) on 10 μl glutathione-Sepharose, 20 μg His6-CSPα or His6-SNAP25b(93–206) (and competing amounts of the other), overnight at 4 °C, PBS washes, Coomassie staining
Details: both partners purified

- binding result: binds
B1: His6-SNAP25b([…]) (domain or fragment)
chain: not shown
notes: source: E. coli BL21(DE3)pLysS, purified (Ni2+-NTA)
